According to PubChem BioAssay AID2546 (National Center for Advancing Translational Sciences (NCATS), 2010):
Out of some 310,000 compounds screened, about 11,000 (3.5%) were called active. The shares of active, inactive and inconclusive entries below differ from those in the screen. Calls follow the shape of the dose curve; as a rule, active = well fitted inhibition curve with a large enough effect; inconclusive = small, poorly fitted or top-dose-only effect, or effect the other way; inactive = flat fitted curve, though single readings scatter. No potency is given beside an inconclusive call; the fits are too rough.
Potency is read from the fitted curve at half-maximal effect; tags tell the direction and shape of the fitted curve.

Experiment: VP16 counterscreen qHTS for inhibitors of ROR gamma transcriptional activity;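 also: Gal4-VP16 expression switched on by copper sulfate through the metallothionein promoter; nearly all actives have a fitted effect of over 50% in size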
Details: Drosophila S2 Gal4-VP16 UAS-luciferase, luminescence, 20 h; series mostly up to 53.6 µM
For COc1nc(-c2ccccc2)ccc1-c1noc(-c2ccco2)n1, the Potency was inconclusive [activator, single point].
In the case of Cc1nn2c(NCCN(C)C)c3c(nc2c1-c1ccccc1)CCCC3, the Potency is reported as active: 0.447 µM.
With Cc1cc(C)cc(N(CCC(=O)Nc2nnc(C)s2)S(=O)(=O)c2ccc(Cl)cc2)c1 the Potency was “inactive”.
In the case of CCOC(=O)c1c(NC(=O)CSc2nnc(-c3cccnc3)o2)sc(C(C)=O)c1C, the Potency is reported as inconclusive [inhibitor, single point].
For CCCCn1c(SCC(=O)NCc2ccco2)nc2ccccc2c1=O, the Potency was “inactive”.
For Cc1cc2c(ncn2C)c(NS(=O)(=O)c2ccc(Cl)cc2)c1C, the Potency was “inactive”.
In the case of CCOC(=O)c1cnc(SC2CC(=O)N(c3ccc(C)cc3)C2=O)nc1N (configuration not stated), the Potency is reported as inconclusive [inhibitor, single point].
In the case of O=C(Nc1cccc(-c2cn3ccccc3n2)c1)c1cc2ccccc2oc1=O, the Potency is reported as active: 8.91 µM.
In the case of COc1cc(/C=N/Nc2nnc3c(n2)[nH]c2ccccc23)ccc1O, the Potency is reported as “inactive”.
In the case of O=C(CCN1C(=O)/C(=C\c2ccccc2Cl)SC1=S)Nc1cccnc1, the Potency is reported as inconclusive [inhibitor, single point].
With COc1ccc(C(=O)Nn2c(SCC(=O)c3ccccc3)nc3ccccc3c2=O)cc1 the Potency was inconclusive [inhibitor, partial curve].
With COc1ccc(CN2CCN(Cc3ccccc3F)CC2)cc1OC the Potency was “inactive”.
For CCn1c(SCC(=O)Nc2cccc(C)c2)nc2nc3c(cc2c1=O)COC(C)(C)C3, the Potency was “inactive”.
With COc1ccc(NC(=O)Cn2nnc(C(=O)NCc3ccccc3)c2N)c(OC)c1 the Potency was inconclusive [inhibitor, single point].
For COc1ccc(C2/C=C\CN(C(=O)Oc3ccccc3)CC(=O)N2Cc2ccc(F)cc2)cc1 (configuration not stated), the Potency was “inactive”.
With COc1ccc(-c2cn3ccsc3n2)cc1 the Potency was inconclusive [inhibitor, single point].
With Oc1c(Cl)cc(Cl)cc1/C=N/c1ncn[nH]1 the Potency was inconclusive [inhibitor, single point].
With COc1ccc(-n2c(COc3cccc4ccccc34)nnc2SCC(=O)NCc2ccco2)cc1 the Potency was inconclusive [inhibitor, single point].
With COC(=O)Nc1nnc(/C=C/c2ccc(OC)cc2)s1 the Potency was inconclusive [activator, single point].
In the case of COC(=O)c1sc(NC(=S)NC(=O)c2cccc(Br)c2)nc1C, the Potency is reported as inconclusive [inhibitor, single point].
For O=C(CCl)Nc1ccc(N2CCCCCC2)cc1, the Potency was inconclusive [inhibitor, single point].
In the case of Cc1c(Cl)cccc1NC(=S)NCc1ccc2c(c1)OCO2, the Potency is reported as active: 11.2 µM.
With CN(CC(=O)NC1CCCCCC1)S(=O)(=O)c1ccccc1 the Potency was inconclusive [activator, single point].
In the case of O=C(/C=C/c1ccc(O)cc1)c1ccc(NC2=C(N3CCCCC3)C(=O)c3ccccc3C2=O)cc1, the Potency is reported as inconclusive [inhibitor, full curve, poor fit].
In the case of Cc1cc(NN)nc(NS(=O)(=O)c2ccccc2)n1, the Potency is reported as “inactive”.
In the case of O=C(NC(=S)NCCN1CCOCC1)c1ccc(Cl)cc1Cl, the Potency is reported as inconclusive [inhibitor, partial curve].
In the case of Cc1cccc(NC(=O)c2nc[nH]c2C(=O)Nc2cccc(C)c2)c1, the Potency is reported as active: 2.82 µM.
For COc1ccccc1-c1cn[nH]c1-c1ccc(OCc2ccc(F)cc2)cc1O, the Potency was inconclusive [inhibitor, single point].
For CC(=O)c1cccc(NC(=O)Nc2ccc3c(c2)OCO3)c1, the Potency was inconclusive [inhibitor, single point].
With O=C(Nc1ccc(OC(F)F)c(Cl)c1)C(c1ccccc1)c1ccccc1 the Potency was inconclusive [inhibitor, single point].
For CCc1ccc2c(CC(=O)Nc3nnc(C4CC4)s3)coc2c1, the Potency was inconclusive [inhibitor, partial curve].
For N#CCN1C(=S)N=C(Nc2cccc(Cl)c2)C12CCCCC2, the Potency was inconclusive [inhibitor, full curve].
In the case of COc1ccccc1CCNC(=O)c1cnn2c(C(F)F)cc(C)nc12, the Potency is reported as “inactive”.
For O=C(NCc1ccco1)C1CCN(c2nc3ccccc3n2Cc2ccc(F)cc2)CC1, the Potency was “inactive”.
In the case of CCOc1cc(C)nc(NCc2ccccc2)n1, the Potency is reported as “inactive”.
In the case of C=C(C)CN(CC)C(=O)c1ccc(OC2CCN(S(=O)(=O)N(C)C)CC2)cc1, the Potency is reported as “inactive”.
With COc1cc(/C=N/n2cnn(Cc3ccccc3Cl)c2=S)cc(OC)c1OC the Potency was inconclusive [inhibitor, single point].
With CCCCCC(=O)N/N=C(\C)c1ccc(N2CCCCC2)cc1 the Potency was inconclusive [inhibitor, partial curve, poor fit].
For Cc1ccc(C)c(NC(=O)c2ccccc2NS(=O)(=O)c2cc([N+](=O)[O-])ccc2C)c1, the Potency was active: 14.1 µM.
In the case of O=C(CCNC(=O)C1CCN(S(=O)(=O)c2ccccc2)CC1)NCCc1ccc(Cl)cc1, the Potency is reported as “inactive”.
In the case of c1ccc(CC2CCN(C3=Nc4cccc5cccc3c45)CC2)cc1, the Potency is reported as active: 7.08 µM.
With CC(=NC1CCCC1)c1c(C)[nH]n(-c2nc3ccccc3s2)c1=O the Potency was inconclusive [inhibitor, single point].
For COc1cc(CNc2ccc(O)cc2)cc(Br)c1OCc1ccccc1, the Potency was inconclusive [inhibitor, single point].
In the case of CC(Cc1ccccc1)NC(=S)CN1CCCC1=S (configuration not stated), the Potency is reported as inconclusive [inhibitor, single point].
For O=C1CCN(CCc2ccccc2)CCN1CCSc1ccccc1, the Potency was inconclusive [inhibitor, partial curve, poor fit].
For O=C1Nc2ccccc2/C1=C\C(=O)c1ccccc1, the Potency was inconclusive [inhibitor, single point].
In the case of COc1cc(OC)cc(C(=O)N[C@H](C(=O)NCCc2ccc(S(N)(=O)=O)cc2)C(C)C)c1, the Potency is reported as inconclusive [inhibitor, single point].
